# Results taken from the supplement of paper PMC10369915.
# The list shows a part of the results. Rule as the data show it: active = 3.2 or more and inactive = the rest. The signal is at background level for most entries.
# Target: SHP2 C-SH2 domain E139D
# Assay: enrichment score (SH2-bound / input frequency) (ratio); bacterial display of known human phosphotyrosine sites (pTyr-Var adds point mutants) read by sequencing; higher = stronger binding; tyrosines were phosphorylated by kinases first
# Settings: peptide library: Human pTyr
# 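Also: displayed peptides selected on beads carrying the immobilized SH2 domain, with library peptides lacking any tyrosine serving as negative controls.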
row,Binder,enrichment score
1,TAPESLAYNTFSIKS [ABL2_HUMAN_459],inactive: 0.683
2,YTATKVVYSAPRSTG [CLD3_HUMAN_198],inactive: 2.63
3,NNANATEYVATRWAR [CDKL5_HUMAN_171_YA],inactive: 0.946
4,TTADGKVYVTAESRF [ABL2_HUMAN_231],inactive: 0.896
5,IKSDVPVYLKRLKGN [CE170_HUMAN_364],inactive: 0.902
6,VIEDTMVYGHLLQDS [CDCP1_HUMAN_743],inactive: 0.641
7,VIKPLVEYDDISSDS [CDK12_HUMAN_73],inactive: 1.1
8,KGSLPEFYARPPRPP [CDN1B_HUMAN_88_YA],inactive: 0.512
9,CFLRENAYADSSVVG [CLH2_HUMAN_899_YA],inactive: 1.91
10,EKIGEGTYGVVYKAR [CDK2_HUMAN_15],inactive: 0.929
11,KEQNRELYSEGLGAW [CNKSR1_HUMAN_665],inactive: 0.888
12,TMHHCKRYRSPEPDP [CLK3_HUMAN_155],inactive: 1.09
13,KGSLPEFYYRPPRPP [CDN1B_HUMAN_88],inactive: 0.478
14,VSSDAEEYQPPIWKS [CHN2_HUMAN_21],inactive: 0.9
15,GSLPEFYYRPPRPPK [CDN1B_HUMAN_89],inactive: 0.496
16,DTDARHSYEAQRENS [CLK2_HUMAN_99_YA],inactive: 0.867
17,GMQDEDGYITLNIKT [CLC1B_HUMAN_7],inactive: 1.87
18,EEEPDSDYSVIRKTG [CLM8_HUMAN_293],inactive: 1.05

# Target: SHP2 C-SH2 domain wild-type
# Assay: as above
# Settings: peptide library: Human pTyr
row,Binder,enrichment score
1,TAPESLAYNTFSIKS [ABL2_HUMAN_459],inactive: 0.689
2,YTATKVVYSAPRSTG [CLD3_HUMAN_198],active: 6.17
3,NNANATEYVATRWAR [CDKL5_HUMAN_171_YA],inactive: 1.07
4,TTADGKVYVTAESRF [ABL2_HUMAN_231],inactive: 0.664
5,IKSDVPVYLKRLKGN [CE170_HUMAN_364],inactive: 0.797
6,VIEDTMVYGHLLQDS [CDCP1_HUMAN_743],inactive: 0.542
7,VIKPLVEYDDISSDS [CDK12_HUMAN_73],inactive: 1.08
8,KGSLPEFYARPPRPP [CDN1B_HUMAN_88_YA],inactive: 0.652
9,CFLRENAYADSSVVG [CLH2_HUMAN_899_YA],inactive: 1.05
10,EKIGEGTYGVVYKAR [CDK2_HUMAN_15],inactive: 0.723
11,KEQNRELYSEGLGAW [CNKSR1_HUMAN_665],inactive: 0.756
12,TMHHCKRYRSPEPDP [CLK3_HUMAN_155],inactive: 0.818
13,KGSLPEFYYRPPRPP [CDN1B_HUMAN_88],inactive: 0.578
14,VSSDAEEYQPPIWKS [CHN2_HUMAN_21],inactive: 0.682
15,GSLPEFYYRPPRPPK [CDN1B_HUMAN_89],inactive: 0.735
16,DTDARHSYEAQRENS [CLK2_HUMAN_99_YA],inactive: 0.711
17,GMQDEDGYITLNIKT [CLC1B_HUMAN_7],inactive: 1.55
18,EEEPDSDYSVIRKTG [CLM8_HUMAN_293],inactive: 1

# Target: SHP2 N-SH2 domain L43F
# Assay: as above
# Settings: peptide library: Human pTyr
row,Binder,enrichment score
1,TAPESLAYNTFSIKS [ABL2_HUMAN_459],inactive: 0.698
2,YTATKVVYSAPRSTG [CLD3_HUMAN_198],inactive: 0.696
3,NNANATEYVATRWAR [CDKL5_HUMAN_171_YA],inactive: 0.862
4,TTADGKVYVTAESRF [ABL2_HUMAN_231],inactive: 0.832
5,IKSDVPVYLKRLKGN [CE170_HUMAN_364],inactive: 0.661
6,VIEDTMVYGHLLQDS [CDCP1_HUMAN_743],inactive: 0.609
7,VIKPLVEYDDISSDS [CDK12_HUMAN_73],inactive: 0.793
8,KGSLPEFYARPPRPP [CDN1B_HUMAN_88_YA],inactive: 0.542
9,CFLRENAYADSSVVG [CLH2_HUMAN_899_YA],inactive: 1.01
10,EKIGEGTYGVVYKAR [CDK2_HUMAN_15],inactive: 0.701
11,KEQNRELYSEGLGAW [CNKSR1_HUMAN_665],inactive: 0.805
12,TMHHCKRYRSPEPDP [CLK3_HUMAN_155],inactive: 1.08
13,KGSLPEFYYRPPRPP [CDN1B_HUMAN_88],inactive: 0.852
14,VSSDAEEYQPPIWKS [CHN2_HUMAN_21],inactive: 0.81
15,GSLPEFYYRPPRPPK [CDN1B_HUMAN_89],inactive: 0.34
16,DTDARHSYEAQRENS [CLK2_HUMAN_99_YA],inactive: 0.738
17,GMQDEDGYITLNIKT [CLC1B_HUMAN_7],inactive: 1.23
18,EEEPDSDYSVIRKTG [CLM8_HUMAN_293],inactive: 0.811

# Target: SHP2 N-SH2 domain T42A
# Assay: as above
# Settings: peptide library: Human pTyr
row,Binder,enrichment score
1,TAPESLAYNTFSIKS [ABL2_HUMAN_459],inactive: 0.578
2,YTATKVVYSAPRSTG [CLD3_HUMAN_198],inactive: 0.741
3,NNANATEYVATRWAR [CDKL5_HUMAN_171_YA],inactive: 0.917
4,TTADGKVYVTAESRF [ABL2_HUMAN_231],inactive: 0.686
5,IKSDVPVYLKRLKGN [CE170_HUMAN_364],inactive: 0.705
6,VIEDTMVYGHLLQDS [CDCP1_HUMAN_743],inactive: 0.577
7,VIKPLVEYDDISSDS [CDK12_HUMAN_73],inactive: 0.933
8,KGSLPEFYARPPRPP [CDN1B_HUMAN_88_YA],inactive: 0.422
9,CFLRENAYADSSVVG [CLH2_HUMAN_899_YA],inactive: 1.15
10,EKIGEGTYGVVYKAR [CDK2_HUMAN_15],inactive: 0.72
11,KEQNRELYSEGLGAW [CNKSR1_HUMAN_665],inactive: 0.626
12,TMHHCKRYRSPEPDP [CLK3_HUMAN_155],inactive: 1.09
13,KGSLPEFYYRPPRPP [CDN1B_HUMAN_88],inactive: 0.666
14,VSSDAEEYQPPIWKS [CHN2_HUMAN_21],inactive: 0.682
15,GSLPEFYYRPPRPPK [CDN1B_HUMAN_89],inactive: 0.639
16,DTDARHSYEAQRENS [CLK2_HUMAN_99_YA],inactive: 0.727
17,GMQDEDGYITLNIKT [CLC1B_HUMAN_7],inactive: 1.54
18,EEEPDSDYSVIRKTG [CLM8_HUMAN_293],inactive: 0.867

# Target: SHP2 N-SH2 domain T52S
# Assay: as above
# Settings: peptide library: Human pTyr
row,Binder,enrichment score
1,TAPESLAYNTFSIKS [ABL2_HUMAN_459],inactive: 0.637
2,YTATKVVYSAPRSTG [CLD3_HUMAN_198],inactive: 0.618
3,NNANATEYVATRWAR [CDKL5_HUMAN_171_YA],inactive: 1.02
4,TTADGKVYVTAESRF [ABL2_HUMAN_231],inactive: 0.674
5,IKSDVPVYLKRLKGN [CE170_HUMAN_364],inactive: 0.881
6,VIEDTMVYGHLLQDS [CDCP1_HUMAN_743],inactive: 0.638
7,VIKPLVEYDDISSDS [CDK12_HUMAN_73],inactive: 0.763
8,KGSLPEFYARPPRPP [CDN1B_HUMAN_88_YA],inactive: 0.806
9,CFLRENAYADSSVVG [CLH2_HUMAN_899_YA],inactive: 1.28
10,EKIGEGTYGVVYKAR [CDK2_HUMAN_15],inactive: 0.708
11,KEQNRELYSEGLGAW [CNKSR1_HUMAN_665],inactive: 0.859
12,TMHHCKRYRSPEPDP [CLK3_HUMAN_155],inactive: 0.98
13,KGSLPEFYYRPPRPP [CDN1B_HUMAN_88],inactive: 0.546
14,VSSDAEEYQPPIWKS [CHN2_HUMAN_21],inactive: 0.848
15,GSLPEFYYRPPRPPK [CDN1B_HUMAN_89],inactive: 0.452
16,DTDARHSYEAQRENS [CLK2_HUMAN_99_YA],inactive: 0.665
17,GMQDEDGYITLNIKT [CLC1B_HUMAN_7],inactive: 1.64
18,EEEPDSDYSVIRKTG [CLM8_HUMAN_293],inactive: 0.892

# Target: SHP2 N-SH2 domain wild-type
# Assay: as above
# Settings: peptide library: Human pTyr
row,Binder,enrichment score
1,TAPESLAYNTFSIKS [ABL2_HUMAN_459],inactive: 0.769
2,YTATKVVYSAPRSTG [CLD3_HUMAN_198],inactive: 0.716
3,NNANATEYVATRWAR [CDKL5_HUMAN_171_YA],inactive: 0.98
4,TTADGKVYVTAESRF [ABL2_HUMAN_231],inactive: 0.913
5,IKSDVPVYLKRLKGN [CE170_HUMAN_364],inactive: 0.774
6,VIEDTMVYGHLLQDS [CDCP1_HUMAN_743],inactive: 0.626
7,VIKPLVEYDDISSDS [CDK12_HUMAN_73],inactive: 0.899
8,KGSLPEFYARPPRPP [CDN1B_HUMAN_88_YA],inactive: 0.835
9,CFLRENAYADSSVVG [CLH2_HUMAN_899_YA],inactive: 1.8
10,EKIGEGTYGVVYKAR [CDK2_HUMAN_15],inactive: 0.773
11,KEQNRELYSEGLGAW [CNKSR1_HUMAN_665],inactive: 0.666
12,TMHHCKRYRSPEPDP [CLK3_HUMAN_155],inactive: 0.983
13,KGSLPEFYYRPPRPP [CDN1B_HUMAN_88],inactive: 0.611
14,VSSDAEEYQPPIWKS [CHN2_HUMAN_21],inactive: 0.718
15,GSLPEFYYRPPRPPK [CDN1B_HUMAN_89],inactive: 0.725
16,DTDARHSYEAQRENS [CLK2_HUMAN_99_YA],inactive: 0.827
17,GMQDEDGYITLNIKT [CLC1B_HUMAN_7],inactive: 1.77
18,EEEPDSDYSVIRKTG [CLM8_HUMAN_293],inactive: 0.976
